Measured values from PubChem BioAssay AID651820 (National Center for Advancing Translational Sciences (NCATS), 2012).
Out of some 340,000 compounds screened, about 12,000 (3.5%) were called active. The shares of active, inactive and inconclusive entries below differ from those in the screen. Calls come from the whole dose curve; as a rule, active = well fitted inhibition curve with a large enough effect; inconclusive = small, poorly fitted or top-dose-only effect, or another doubt; inactive = no such curve, though single readings can be large or run the other way. Potencies of inconclusive entries are left out as doubtful fits.

Assay: qHTS Assay for Inhibitors of Hepatitis C Virus (HCV)
Settings: Huh7.5.1 HCVcc-Cre (HCVcc is cell-culture hepatitis C virus) infection, luciferase reporter, 44 h; activity change, negative = inhibition: at 41.8 µM (top of the series) unless noted
How it was run: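 Seed cells (1,000/well) for 4 h; treat with compound and infect with HCVcc-Cre, moi about 0.5. Incubate 44 h, then detect luciferase activity.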
% is set by controls: 0 for no effect and ±100 for the full control effect; potency is the fitted concentration of half-maximal effect; tags give direction and shape of the fitted curve.

Row | SMILES | activity change, negative = inhibition | Potency
1 | O=C(NCC1CCCO1)c1ccc2c(=O)n(-c3ccccc3)c(=S)[nH]c2c1 (configuration not stated) | inactive: 3.38% | –
2 | Clc1ccc(-c2n[nH]c3c2CCCC3)cc1 | – | active: 10 µM
3 | CCn1c2ccccc2c2cc(/C=N/n3cn[nH]c3=S)ccc21 | – | active: 11.2 µM
4 | Cc1ccc(C(=O)Nc2ccccc2N2CCCCC2)o1 | – | inconclusive [inhibitor, partial curve]
5 | COc1ccc(NC(=O)COC(=O)C2CC3C=CC2C3)cc1 (configuration not stated) | inactive: 14.8% | –
6 | CC(C)(C)n1nnnc1C(c1ccncc1)N1CCN(c2ccc(O)cc2)CC1 (configuration not stated) | inactive: 12% | –
7 | COC(=O)c1sc(NC(=O)COc2ccccc2)nc1C | inactive: -12.9% | –
8 | CCN1CCC(O)(C(C(=O)O)c2ccccc2)CC1 (configuration not stated) | inactive: -13.2% | –
9 | N#Cc1cc2c(nc1SCc1ccccc1)CCCC2=O | – | inconclusive [inhibitor, partial curve]
10 | O=C(CCl)Nc1cc(-c2ccccc2)nn1-c1ccccc1 | – | active: 14.1 µM
11 | CCOC(=O)c1cc(-c2ccccc2C)n(CC2CC(c3cccc([N+](=O)[O-])c3)=NO2)n1 (configuration not stated) | – | inconclusive [inhibitor, single point]
12 | COc1ccc(C)cc1NC(=O)c1ccc2c(c1)OCO2 | – | inconclusive [inhibitor, single point]
13 | Cc1cccc(N2CCN(C(=O)NCc3ccc(F)cc3)CC2)c1C | – | inconclusive [inhibitor, full curve, poor fit]
14 | Fc1ccc2cc(-c3ccsc3)ncc2c1 | – | inconclusive [inhibitor, single point]
15 | Cn1cc(S(=O)(=O)N2CCCC2)cc1C(=O)NCCc1ccccc1 | – | inconclusive [inhibitor, full curve, poor fit]
16 | Cc1cccc(-n2c(C)cc(/C=N/n3cnnc3)c2C)c1 | inactive: -11.3% | –
17 | COc1ccc2nc(NC(=O)CSc3cn[nH]n3)sc2c1 | – | active: 12.6 µM
18 | Cc1ccc(Cl)cc1N1CCN(CC(O)COCc2ccco2)CC1 (configuration not stated) | – | inconclusive [inhibitor, partial curve]
19 | Cc1cnc(NC(=O)c2cc3c(C)nn(-c4ccccc4)c3s2)s1 | – | inconclusive [inhibitor, full curve]
20 | O=C(/C=C/c1cc([N+](=O)[O-])ccc1OC(F)F)Nc1cccc(OC(F)F)c1 | – | inconclusive [inhibitor, full curve]
21 | COc1ccc(CCN(C)c2ccc(S(=O)(=O)N3CCCC3)cc2[N+](=O)[O-])cc1OC | – | inconclusive [inhibitor, single point]
22 | CCOC(=O)N1CCN(C(=O)c2ccc3c(c2)N(C)C(=O)/C(=C\c2ccc(OCC)c(OC)c2)S3)CC1 | – | active: 10 µM
